About 14,000 (4.5%) of roughly 310,000 compounds showed an effect of 50% or more. Effects have a minus sign here. The list shows a part of the results.
These compounds were tested against human ether-à-go-go-related gene (hERG) potassium channel (human, UniProt Q12809) (assay: primary screen, population patch clamp on CHO cells stably expressing hERG).
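Also: peak tail current of the secondary pulse compared with the same well before compound.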

human ether-à-go-go-related gene (hERG) potassium channel, sequence (Q12809 whole entry, looked up): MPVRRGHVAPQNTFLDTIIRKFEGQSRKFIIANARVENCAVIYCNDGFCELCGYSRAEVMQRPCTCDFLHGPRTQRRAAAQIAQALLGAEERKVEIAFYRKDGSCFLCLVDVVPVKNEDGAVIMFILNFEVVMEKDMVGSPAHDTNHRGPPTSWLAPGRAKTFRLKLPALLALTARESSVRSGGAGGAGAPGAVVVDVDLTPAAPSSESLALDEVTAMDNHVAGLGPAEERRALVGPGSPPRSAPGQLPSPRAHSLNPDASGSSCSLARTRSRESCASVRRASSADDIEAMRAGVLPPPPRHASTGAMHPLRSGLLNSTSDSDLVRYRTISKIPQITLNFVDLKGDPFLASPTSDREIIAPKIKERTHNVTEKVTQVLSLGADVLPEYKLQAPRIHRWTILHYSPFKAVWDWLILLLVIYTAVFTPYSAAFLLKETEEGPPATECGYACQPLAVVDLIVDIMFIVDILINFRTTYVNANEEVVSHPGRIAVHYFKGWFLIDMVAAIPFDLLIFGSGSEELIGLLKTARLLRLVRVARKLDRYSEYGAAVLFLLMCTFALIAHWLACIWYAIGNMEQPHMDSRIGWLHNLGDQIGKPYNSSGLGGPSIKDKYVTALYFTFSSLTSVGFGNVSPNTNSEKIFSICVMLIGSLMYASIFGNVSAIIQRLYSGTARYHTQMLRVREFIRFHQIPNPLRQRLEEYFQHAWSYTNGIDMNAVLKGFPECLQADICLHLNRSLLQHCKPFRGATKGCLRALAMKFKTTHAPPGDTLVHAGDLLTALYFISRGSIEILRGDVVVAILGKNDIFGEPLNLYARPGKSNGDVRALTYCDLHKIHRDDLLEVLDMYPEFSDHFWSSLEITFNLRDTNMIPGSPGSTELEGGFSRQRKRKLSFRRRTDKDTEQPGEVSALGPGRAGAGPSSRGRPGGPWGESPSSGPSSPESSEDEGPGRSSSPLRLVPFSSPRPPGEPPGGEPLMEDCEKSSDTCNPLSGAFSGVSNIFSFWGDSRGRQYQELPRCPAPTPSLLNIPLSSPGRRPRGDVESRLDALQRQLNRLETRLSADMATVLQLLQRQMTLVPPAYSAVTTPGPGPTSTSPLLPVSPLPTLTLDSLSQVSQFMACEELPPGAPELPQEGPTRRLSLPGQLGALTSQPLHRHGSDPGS

SMILES	hERG current change (%, negative = inhibition) at 10uM
COc1ccc(C(=O)NCCC(C)C)cc1S(=O)(=O)N1CCOCC1	-8.41%
COc1ccc(S(=O)(=O)N2CCC(NC(=O)C3CCCCC3)CC2)cc1	8.75%
CC(C)CC(=O)Nc1ccccc1N1CCOCC1	6.04%
c1cnc(NC2C3CC4CC(C3)CC2C4)nc1 (stereo not drawn)	-9.58%
CCCN(CCC)CCCNC(=O)c1cc2c(=O)[nH]c3ccccc3c2n1C	7.94%
N=C1C(c2nc3ccccc3s2)=C(O)CN1NC(=O)c1ccco1	-1.52%
COc1ccc(NC(=O)CSc2nnc(NC(=O)c3ccccc3C(=O)O)s2)cc1	13.6%
COc1ccc(-n2nc(C(=O)NCC(=O)N3CCCCC3)c3ccccc3c2=O)cc1	3.14%
COc1ccc(C(=O)CSc2nnc(CNC(=O)c3ccc(OC)cc3)n2C)cc1	6.86%
CNC(=O)c1csc(-c2ccc(C)cc2)n1	26.7%
O=S(=O)(Nc1ncccn1)c1ccccc1	3.63%
CCOC(=O)c1c(NC(=O)CSc2nnc(-c3ccccc3)o2)sc(C(C)=O)c1C	5.01%
CCOc1ccccc1NC(=O)NC(=O)N(C)S(C)(=O)=O	7.23%
COc1ccc(CNC(=O)c2ccc(Cn3cc(Br)cn3)o2)cc1	-22.3%
O=C(O)CCc1nc(-c2cccs2)no1	-0.164%
O=C(Nc1c2c(nn1-c1ccccc1)CS(=O)(=O)C2)c1ccccc1C(F)(F)F	14.3%
C/C(=N\Nc1ccc(F)cc1)c1ccncc1	-42.3%
CCN=C1SC(C(=O)Nc2cccc(Cl)c2)CC(=O)N1CC (stereo not drawn)	-10.7%
CCN1C(=O)C2(C(C(=O)c3ccc(C)o3)=C(O)C(=O)N2CCCN(C)C)c2ccccc21 (stereo not drawn)	19.8%
CC(=O)O.NC1=NC(c2ccc(Br)cc2)n2c(nc3ccccc32)N1 (stereo not drawn)	-8.18%
Cc1cc(C)c(S(=O)(=O)n2ccc3ccccc32)c(C)c1	6.67%
CN(C)S(=O)(=O)c1ccc(NC(=S)NC(=O)Cc2ccccc2)cc1	4.34%
CC(C)OC(=O)CCc1nc2ccccc2[nH]c1=O	10.1%

SMILES	hERG current change (%, negative = inhibition) at 10uM
Cn1nnnc1Sc1ccc(C(=O)O)cc1[N+](=O)[O-]	-1.08%
O=C(O)c1cc(-c2ccccc2Cl)n(-c2ccc(F)cc2)n1	11.3%
Cc1ccccc1C(=O)NCCCNC(=O)c1ccccn1	6.77%
CCOc1ccc(S(=O)(=O)N(C)c2ccc(OCC(=O)NCCc3ccc(OC)cc3)cc2)cc1	-2.8%
CCc1cccc(NC(=O)Cc2cn(C)c3ccccc23)c1	-7.6%
CCOC(=O)Nc1ccc2nc(N3CCCCCC3)sc2c1	-50.6%
Nn1c(SCC(=O)Nc2ccc(F)cc2)nnc1-c1cccnc1	12%
COc1ccc(-c2cc3c(=O)n(CC(=O)NCCCN4CCC(N5CCCCC5)CC4)nc(C)n3n2)cc1	-2.97%
Nc1ccc(CN2CCCCCC2)cc1	16.6%
O=C1CC(c2ccccc2)CC(O)=C1C=NCCN1CCNCC1 (stereo not drawn)	9.28%
C/C(=N\NC(=O)c1cccc(C)c1O)c1ccc(NC(=O)Cc2ccccc2)cc1	-25.8%
O=C(CNS(=O)(=O)c1ccccc1)NCc1ccccn1	-2.07%
COc1cc(OC)cc(C(=O)NCc2cc(C)nc3ccccc23)c1	-2.16%
O=C(CCl)Nc1cccc(CP(=O)(c2ccccc2)c2ccccc2)c1	-27.6%
CCOC(=O)C1=C(C)OC(N)=C(C#N)C1c1ccsc1 (stereo not drawn)	3.29%
Cn1nc(C(C)(C)C)cc1NC(=O)Nc1ccc(Cl)cc1	8%
Cc1ccc(C=Nc2ccccc2C(N)=O)s1	11%
CC(/C=C/c1ccc2c(c1)OCO2)=N/NC(=O)c1ccc(C)nc1	-0.311%
O=C(C1c2ccccc2Oc2ccccc21)N1CCN(c2ccc(Cl)cc2)CC1	12.1%
Cc1cccc(NP(=O)(Oc2ccccc2F)Oc2ccccc2F)c1	0.048%
CN(CC1CCCN(CCc2ccc(Cl)cc2)C1)C(=O)C(=O)c1ccco1 (stereo not drawn)	-74.5%
CC(C)c1ccc(NC(=S)NN2C(C)CCCC2C)cc1 (stereo not drawn)	28%
Cc1nc(N2CCN(c3ccccn3)CC2)c2c(C)c(C(=O)N3CCN(c4ccc(F)cc4)CC3)sc2n1	6.79%

SMILES	hERG current change (%, negative = inhibition) at 10uM
Cc1cc(NS(=O)(=O)c2ccc(NC(=O)C(C)Oc3ccc(C(C)C)cc3)cc2)no1 (stereo not drawn)	5.89%
CCCN(CCC)CCCNC(=O)c1ccc2c(Cl)c3c(nc2c1)CCC3	-29.1%
CC(Oc1ccc2c3c(c(=O)oc2c1)CCC3)C(=O)NCC1CCC(C(=O)O)CC1 (stereo not drawn)	12.5%
C=CCNC(=O)Nc1ccc2oc(C)nc2c1	-1.38%
COCCN(Cc1cc2ccccc2[nH]c1=O)C(=O)c1ccccc1OC	-1.13%
CCOc1cc(NC(=S)NCC2CCCO2)c(OCC)cc1NC(=O)c1ccccc1C (stereo not drawn)	-15.4%
CCc1c(C)nc(N2CCN(c3ccc(OC)cc3)CC2)[nH]c1=O	14.4%
O=C(Nc1ccc(Br)cc1)C(c1ccccc1)c1ccccc1	14.5%
CN(CC(=O)Nc1ccc(S(=O)(=O)N2CCCC2)cc1)Cc1ccc(Cl)cc1	5.6%
CC(C)C(c1nnnn1Cc1ccccc1)N(CCCO)Cc1cc2cc3c(cc2[nH]c1=O)OCO3 (stereo not drawn)	-7.12%
COc1ccccc1N1CCN(C(=O)N2CCOCC2)CC1	22.5%
CCCCn1c(SCC(=O)NC2CC2)nnc1-c1ccncc1	17.2%
CCc1nc2c(c(=O)c3ccccc3n2C)c(=O)n1C1CCCCCC1	-1.73%
Cc1ccc(CNS(=O)(=O)c2ccc3oc(C(=O)O)c(C)c3c2)cc1	-3.09%
COc1ccc(NC(=O)CSc2c3c(nc4ccccc24)CCC3)c(OC)c1	-36.9%
CCOC(=O)N1CCC(NC(=O)c2cc(COc3ccc(F)cc3Cl)on2)CC1	-0.672%
COc1ccc(C)cc1S(=O)(=O)N1CCCC(C(=O)N2CCN(c3ccccc3F)CC2)C1 (stereo not drawn)	-23.4%
O=C(NC1CCSc2ccccc21)c1ccc(F)c(S(=O)(=O)N2CCOCC2)c1 (stereo not drawn)	-3.33%
C=CCN1C(=O)[C@@H]2Cc3c([nH]c4ccccc34)C(c3ccc(O)cc3)N2C1=S (stereo partly drawn)	16.6%
CN(C)CCN1C(=O)C(=O)/C(=C(/O)c2ccc(F)cc2)C1c1ccccc1F (stereo not drawn)	11.8%
Cc1cc(C)n(-c2nc3ccccc3c(=O)n2OCC(C)C)n1	9.88%
O=c1cc(N2CCC3(CC2)OCCO3)[nH]c(=O)n1-c1ccc(Cl)cc1	-10.1%
COCCCN(C(=O)c1ccco1)c1nc(-c2ccc(OC)cc2)cs1	1.81%

SMILES	hERG current change (%, negative = inhibition) at 10uM
O=C(COC(=O)C1CC1)c1c[nH]c2ccccc12	1.48%
CN(c1ccccc1)c1ccc(/C=C(\C#N)c2nnc3n2CCCCC3)cc1[N+](=O)[O-]	-45.5%
COc1cccc(CNC(=O)C2CCC(=O)N(CC3CCCCC3)C2)c1OC (stereo not drawn)	16.7%
Cc1ccc(-c2csc3ncn(CC#N)c(=O)c23)cc1	5.01%
Cc1cc(NC(=O)CCCOc2ccc(Cl)cc2Cl)no1	19.7%
O=C(CN(Cc1ccccc1C(F)(F)F)C(=O)CNC(=O)c1ccco1)NC1CCCC1	-9.63%
Cc1cc(C)c2cc(C(O)c3nnnn3Cc3ccccc3)c(=O)[nH]c2c1 (stereo not drawn)	-11.8%
C[C@@H](O)[C@H]1O[C@]2(C)CCC[C@H]1O2	17%
O=C(C1CCN(S(=O)(=O)c2ccccc2)CC1)N1CCc2ccccc21	28%
CCOC(=O)c1cnc(-c2ccccc2)nc1Oc1ccc(Cl)c(Cl)c1	7.25%
COCc1ccc(C(=O)NC2CCCN(Cc3ccccc3F)C2)o1 (stereo not drawn)	11.2%
O=C(c1ccc(S(=O)(=O)Cc2ccccc2F)c([N+](=O)[O-])c1)N1CCCCCC1	-18.6%
CC1(C)Cc2cccc(OCC(=O)O)c2O1	17.9%
O=C(O)c1ccc(/C=N/NC(=O)C(O)(c2ccccc2)c2ccccc2)cc1	12.4%
CCS/C(N)=N/N=C/c1cc(C)ccc1O	-2.73%
CN1C(=O)CN=C(c2ccccc2Cl)c2cc(Br)ccc21	-18.9%
Cc1ccc(S(=O)(=O)N(C)CC(=O)N2CCN(Cc3ccccc3)CC2)cc1	-24.6%
Cc1cc(C)c2c(c1)NC(c1cc3c(cc1Br)OCO3)C1CC=CC21 (stereo not drawn)	5.68%
CCCCNC(=S)NCc1ccc2c(c1)cc(C)n2C	-10.3%
COc1ccc(NC(=O)C2CCCN(S(=O)(=O)c3c(C)n[nH]c3C)C2)c(OC)c1 (stereo not drawn)	-0.203%
CC(=O)c1c(C)n(-c2ccc(C)cc2)c2ccc(O)cc12	12%
